Over roughly 81,000 sequences, “one-hybrid fitness for binding NBS DNA” has its median near -0.1; the highest 2% begin near 0.36. The list shows a part of the results.
B1: Caulobacter ParB omega fusion; a variant is named by its letters at X, in order, B8GW30 (parent)
chain: MESVVVGEPGMSEGRRGLGRGLSALLGEVDAAPAQAPGEQLGGSREAPIEILQRNPDQPRRTFREEDLEDLSNSIREKGVLQPILVRPSPDTAGEYQIVAGERAWRAAQRAGLKTVPIMVRELDDLAVLEIGIIENVQRADLNVLEEALSYKVLMEKFERTQENIAQTIGKSXSHVANXMRLLXLPDEVQSYLVSGELTAXHARAIAAAADPVALAKQIIEGGLSVRETEALARKAPNLSAGKSKGGRPPRVKDTDTQALESDLSSVLGLDVSIDHRGSTGTLTITYATLEQLDDLCNRLTRGI

Variants of: B1
Test: one-hybrid fitness for binding NBS DNA (the Noc-binding site; scaled: cognate 1, non-cognate 0); higher = stronger binding
Conditions: with NBS DNA site
How it was run: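 Selection: bacterial one-hybrid in E. coli USO, HIS3 reporter with the site 19 bp from the promoter, 48 hours at 37°C on M9-minus-histidine plus 0.1 mM IPTG and 5 mM 3-AT. Libraries were Caulobacter ParB with four randomised specificity codons, sequenced on Illumina before and after selection. Fitness is the rescaled log change in variant-to-wild-type read ratio, anchored to the cognate and non-cognate sites.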

Row | Variant | one-hybrid fitness for binding NBS DNA
1 | SYRS | ≤ 0.2
2 | ANIP | ≤ 0.2
3 | NGIG | ≤ 0.2
4 | AHPP | ≤ 0.2
5 | TRQN | ≤ 0.2
6 | YQPS | ≤ 0.2
7 | GHKT | ≤ 0.2
8 | RAIQ | ≤ 0.2
9 | DAQE | ≤ 0.2
10 | ITMS | ≤ 0.2
11 | EFPR | ≤ 0.2
12 | HEHQ | ≤ 0.2
13 | SYPN | ≤ 0.2
14 | PESI | ≤ 0.2
15 | VCTN | ≤ 0.2
16 | TMNC | ≤ 0.2
17 | GGVG | ≤ 0.2
18 | WTRL | ≤ 0.2
19 | CKHC | ≤ 0.2
20 | HQNP | ≤ 0.2
21 | LVKE | ≤ 0.2
22 | IRHA | ≤ 0.2
23 | EMRF | ≤ 0.2
24 | SWHR | ≤ 0.2

Row | Variant | one-hybrid fitness for binding NBS DNA
25 | SNRR | ≤ 0.2
26 | IRAH | ≤ 0.2
27 | PPRV | ≤ 0.2
28 | TPFT | ≤ 0.2
29 | NQPM | ≤ 0.2
30 | WNER | ≤ 0.2
31 | HGDA | ≤ 0.2
32 | VQYC | ≤ 0.2
33 | RCIG | ≤ 0.2
34 | CPRQ | ≤ 0.2
35 | NEHG | ≤ 0.2
36 | KEVS | ≤ 0.2
37 | CQTW | ≤ 0.2
38 | RSDK | ≤ 0.2
39 | EPAT | ≤ 0.2
40 | YPAF | ≤ 0.2
41 | QTHM | 0.296
42 | QDNG | ≤ 0.2
43 | PQDG | ≤ 0.2
44 | QWPW | ≤ 0.2
45 | QSIM | ≤ 0.2
46 | QVGM | ≤ 0.2
47 | MYYL | ≤ 0.2
48 | NNSG | ≤ 0.2

Row | Variant | one-hybrid fitness for binding NBS DNA
49 | DRQQ | ≤ 0.2
50 | ATHE | ≤ 0.2
51 | MNAI | ≤ 0.2
52 | SRFP | ≤ 0.2
53 | YNSS | ≤ 0.2
54 | YRLQ | ≤ 0.2
55 | TMHG | ≤ 0.2
56 | MFYS | ≤ 0.2
57 | NDAG | ≤ 0.2
58 | ARLH | ≤ 0.2
59 | PHLR | ≤ 0.2
60 | CMLA | ≤ 0.2
61 | SGQP | ≤ 0.2
62 | DGPD | ≤ 0.2
63 | YLYF | ≤ 0.2
64 | FLCC | ≤ 0.2
65 | RRLQ | 0.209
66 | MKDG | ≤ 0.2
67 | VAGT | ≤ 0.2
68 | RNQL | ≤ 0.2
69 | PLYS | ≤ 0.2
70 | YRGG | ≤ 0.2
71 | HKMV | ≤ 0.2
72 | YLAV | ≤ 0.2

Row | Variant | one-hybrid fitness for binding NBS DNA
73 | RILR | 0.27
74 | TPRW | ≤ 0.2
75 | VKGA | ≤ 0.2
76 | VRQQ | ≤ 0.2
77 | PYNS | ≤ 0.2
78 | QNAV | ≤ 0.2
79 | TKTI | ≤ 0.2
80 | MAGG | ≤ 0.2
81 | MLCT | ≤ 0.2
82 | ACQK | ≤ 0.2
83 | RDMA | ≤ 0.2
84 | NIVG | ≤ 0.2
85 | QMHD | ≤ 0.2
86 | QAPF | 0.232
87 | PGTR | ≤ 0.2
88 | SPTR | ≤ 0.2
89 | KTYV | ≤ 0.2
90 | TMAA | ≤ 0.2
91 | TMRF | ≤ 0.2
92 | SSWH | ≤ 0.2
93 | RLLI | ≤ 0.2
94 | ADLT | ≤ 0.2
95 | GRYT | ≤ 0.2
96 | QDAK | ≤ 0.2

Row | Variant | one-hybrid fitness for binding NBS DNA
97 | PSGI | ≤ 0.2
98 | CIQL | ≤ 0.2
99 | ESSM | ≤ 0.2
100 | DSNR | ≤ 0.2
101 | SLFD | ≤ 0.2
102 | PEDN | ≤ 0.2
103 | PWSV | ≤ 0.2
104 | QVAA | ≤ 0.2
105 | TLPE | ≤ 0.2
106 | NITL | ≤ 0.2
107 | CQKC | ≤ 0.2
108 | ENFR | ≤ 0.2
109 | LLFS | ≤ 0.2
110 | SPAG | ≤ 0.2
111 | MQVS | ≤ 0.2
112 | QLYG | ≤ 0.2
113 | QGYG | ≤ 0.2
114 | PSKK | ≤ 0.2
115 | RQAN | ≤ 0.2
116 | VNAT | ≤ 0.2
117 | MHQG | ≤ 0.2
118 | QLVN | ≤ 0.2
119 | ASRA | ≤ 0.2
120 | RPKS | ≤ 0.2

Row | Variant | one-hybrid fitness for binding NBS DNA
121 | WAGS | ≤ 0.2
122 | TALV | ≤ 0.2
123 | FPAI | ≤ 0.2
124 | PSHI | ≤ 0.2
125 | HTLC | ≤ 0.2
126 | STTA | ≤ 0.2
127 | SPSV | ≤ 0.2
128 | GTRV | ≤ 0.2
129 | CFRC | ≤ 0.2
130 | PRTP | ≤ 0.2
131 | GMAC | ≤ 0.2
132 | FSNW | ≤ 0.2
133 | GPFT | ≤ 0.2
134 | GMDS | ≤ 0.2
135 | ANIF | ≤ 0.2
136 | DLVT | ≤ 0.2
137 | PPRM | ≤ 0.2
138 | MRKC | ≤ 0.2
139 | APVI | ≤ 0.2
140 | RILH | ≤ 0.2
141 | RLCE | ≤ 0.2
142 | HAMF | ≤ 0.2
143 | DRIW | ≤ 0.2
144 | QSGE | ≤ 0.2

Row | Variant | one-hybrid fitness for binding NBS DNA
145 | HVTK | ≤ 0.2
146 | HSYF | ≤ 0.2
147 | SCLT | ≤ 0.2
148 | PTMG | ≤ 0.2
149 | FEAM | ≤ 0.2
150 | QVKQ | 0.241
151 | LLGA | ≤ 0.2
152 | HMSA | ≤ 0.2
153 | THTS | ≤ 0.2
154 | QPYD | ≤ 0.2
155 | AVTF | ≤ 0.2
156 | MAQL | ≤ 0.2
157 | FKHT | ≤ 0.2
158 | EWAR | ≤ 0.2
159 | VCAV | ≤ 0.2
160 | QPYQ | ≤ 0.2
161 | DMKY | ≤ 0.2
162 | RHSR | 0.448
163 | PGPY | ≤ 0.2
164 | LWSK | ≤ 0.2
165 | QGGD | ≤ 0.2
166 | VTKL | ≤ 0.2
167 | RDWY | ≤ 0.2
168 | RLSM | ≤ 0.2

Row | Variant | one-hybrid fitness for binding NBS DNA
169 | WPLE | ≤ 0.2
170 | NYWS | ≤ 0.2
171 | RKQK | ≤ 0.2
172 | NNMQ | ≤ 0.2
173 | QQTC | ≤ 0.2
174 | DARS | ≤ 0.2
175 | KSDY | ≤ 0.2
176 | PRNW | ≤ 0.2
177 | DQMV | ≤ 0.2
178 | RCYY | ≤ 0.2
179 | NGPT | ≤ 0.2
180 | AESC | ≤ 0.2
181 | DRGM | ≤ 0.2
182 | KTCQ | ≤ 0.2
183 | PLIW | ≤ 0.2
184 | NAVN | ≤ 0.2
185 | HYSR | ≤ 0.2
186 | VLTG | ≤ 0.2
187 | WTEG | ≤ 0.2
188 | YLPY | ≤ 0.2
189 | RGHY | ≤ 0.2
190 | GNYR | ≤ 0.2
191 | YSNG | ≤ 0.2
192 | HWYR | ≤ 0.2

Row | Variant | one-hybrid fitness for binding NBS DNA
193 | SKTA | ≤ 0.2
194 | HKLR | ≤ 0.2
195 | QRRP | 0.359
196 | FTPK | ≤ 0.2
197 | EHDL | ≤ 0.2
198 | TING | ≤ 0.2
199 | IARN | ≤ 0.2
200 | KLNV | ≤ 0.2
201 | GRRS | ≤ 0.2
202 | KCVT | ≤ 0.2
203 | NKKS | ≤ 0.2
204 | VCQR | ≤ 0.2
205 | MDPT | ≤ 0.2
206 | LIKT | ≤ 0.2
207 | CLYS | ≤ 0.2
208 | RESF | ≤ 0.2
209 | YFIS | ≤ 0.2
210 | EARN | ≤ 0.2
211 | RAAV | ≤ 0.2
212 | TLAM | ≤ 0.2
213 | RHIV | ≤ 0.2
214 | MNNG | ≤ 0.2
215 | HDCD | ≤ 0.2
216 | IRER | ≤ 0.2

Row | Variant | one-hybrid fitness for binding NBS DNA
217 | QASD | ≤ 0.2
218 | FRLA | ≤ 0.2
219 | FFTA | ≤ 0.2
220 | RWVA | ≤ 0.2
221 | TAMP | ≤ 0.2
222 | YRTF | ≤ 0.2
223 | GQAE | ≤ 0.2
224 | LMNM | ≤ 0.2
225 | ANKR | ≤ 0.2
226 | LPAS | ≤ 0.2
227 | AEMS | ≤ 0.2
228 | LVLS | ≤ 0.2
229 | LNLP | ≤ 0.2
230 | LGAW | ≤ 0.2
231 | PYPR | ≤ 0.2
232 | WCGV | ≤ 0.2
233 | ICTF | ≤ 0.2
234 | NHRA | ≤ 0.2
235 | SIMS | ≤ 0.2
236 | TRPD | ≤ 0.2
237 | KFNA | ≤ 0.2
238 | RRNI | 0.36
239 | RLAD | ≤ 0.2
240 | KLPV | ≤ 0.2

Row | Variant | one-hybrid fitness for binding NBS DNA
241 | ECPM | ≤ 0.2
242 | VMRS | ≤ 0.2
243 | QKLD | ≤ 0.2
244 | ILCS | ≤ 0.2
245 | EVGS | ≤ 0.2
246 | LCVS | ≤ 0.2
247 | KDRF | ≤ 0.2
248 | NKIK | ≤ 0.2
249 | NLNW | ≤ 0.2
250 | NNVG | ≤ 0.2
251 | NAHC | ≤ 0.2
252 | KDQR | ≤ 0.2
253 | NGLF | ≤ 0.2
254 | LGKW | ≤ 0.2
255 | VIYG | ≤ 0.2
256 | PLQT | ≤ 0.2
257 | QAGG | ≤ 0.2
258 | QVPI | ≤ 0.2
259 | STTS | ≤ 0.2
260 | RNHK | ≤ 0.2
261 | TMTS | ≤ 0.2
262 | CPRS | ≤ 0.2
263 | HCCT | ≤ 0.2
264 | AQSK | 0.263

Row | Variant | one-hybrid fitness for binding NBS DNA
265 | RIKF | ≤ 0.2
266 | IPTE | ≤ 0.2
267 | RTGP | ≤ 0.2
268 | CANA | ≤ 0.2
269 | EKST | ≤ 0.2
270 | SAPE | ≤ 0.2
271 | ARHC | ≤ 0.2
272 | DISS | ≤ 0.2
273 | LGGY | ≤ 0.2
274 | RASF | ≤ 0.2
275 | SHNV | ≤ 0.2
276 | LACG | ≤ 0.2
277 | ISAC | ≤ 0.2
278 | VHHR | ≤ 0.2
279 | LGPP | ≤ 0.2
280 | TCTM | ≤ 0.2
281 | VGYV | ≤ 0.2
282 | TERS | ≤ 0.2
283 | YGPT | ≤ 0.2
284 | TTSA | ≤ 0.2
285 | WQHC | ≤ 0.2
286 | SFLG | ≤ 0.2
287 | EVSY | ≤ 0.2
288 | QYNH | 0.246

Row | Variant | one-hybrid fitness for binding NBS DNA
289 | WVLV | ≤ 0.2
290 | TGPT | ≤ 0.2
291 | RGLE | ≤ 0.2
292 | MMDG | ≤ 0.2
293 | NVFS | ≤ 0.2
294 | DACF | ≤ 0.2
295 | PQLK | ≤ 0.2
296 | SLKI | ≤ 0.2
297 | LLAQ | ≤ 0.2
298 | HIPP | ≤ 0.2
299 | QWLI | ≤ 0.2
300 | VTHT | ≤ 0.2
301 | RTTY | ≤ 0.2
302 | PATN | ≤ 0.2
303 | QDKY | ≤ 0.2
304 | TDFG | ≤ 0.2
305 | QVHV | ≤ 0.2
306 | KSHW | ≤ 0.2

From a collection of fitness landscapes (doi:10.1016/j.celrep.2020.107928)
